# The list shows a part of the results.
# Tests used:
# HSkMC = human skeletal muscle cells; experiment: cytotoxicity call (relative viability < 0.9); details: 10 µM
# HepG2 = experiment: cytotoxicity call (relative viability < 0.9); details: 10 µM
# S. aureus RN4220 = experiment: growth inhibition call (relative growth <= 0.2); details: 50 µM
SMILES,cytotoxicity call (HSkMC),cytotoxicity call (HepG2),growth inhibition call (S. aureus RN4220)
O=C([C@@H]1[C@@H](CO)[C@@H]2Cn3c(cccc3=O)[C@@H]2N1C(=O)C1CCCC1)N1CCOCC1,inactive,inactive,inactive
CO[C@H](C(=O)N(C)C[C@H]1OCc2ccccc2-c2c(n(C)c3ccccc23)C(=O)N([C@H](C)CO)C[C@H]1C)c1ccccc1,inactive,inactive,inactive
CN1CCN(C(=O)C[C@@H]2CC[C@H]3[C@@H](COC[C@H](O)CN3Cc3ccc4c(c3)OCO4)O2)CC1,inactive,inactive,inactive
C[C@H](CO)N1C[C@H](C)[C@@H](CN(C)S(=O)(=O)c2cccs2)Oc2ccc(NC(=O)C3CC3)cc2C1=O,inactive,inactive,inactive
C[C@@H]1CN([C@H](C)CO)C(=O)c2cc(C#C[C@@H](C)O)cnc2O[C@H]1CN(C)C(=O)Nc1ccc(C(F)(F)F)cc1,inactive,inactive,inactive
CC[C@@]1(C)CC(=O)NC1=O,inactive,inactive,inactive
C[C@H](CO)N1C[C@H](C)[C@H](CN(C)C(=O)C2CCOCC2)Oc2ncc(C#CCc3ccccc3)cc2C1=O,inactive,inactive,inactive
CCCCCCCCCCCCCCCCOCCCOP(=O)(O)CO[C@H](CO)Cn1ccc(N)nc1=O,inactive,inactive,inactive
C[C@H](CO)N1C[C@H](C)[C@@H](CN(C)C(=O)Nc2ccc3c(c2)OCO3)Oc2c(NC(=O)C3CC3)cccc2C1=O,inactive,inactive,inactive
CN(CC(N)=O)S(=O)(=O)c1ccc(F)cc1,inactive,inactive,inactive
CO[C@@H]1CN(C)C(=O)c2ccc(NC(=O)C3CCOCC3)cc2OC[C@@H](C)N(C(=O)Nc2ccc(C(F)(F)F)cc2)C[C@H]1C,inactive,inactive,active
C[C@H](CO)N1C[C@H](C)[C@@H](CN(C)S(=O)(=O)c2ccc(Cl)cc2)Oc2ccc(NS(=O)(=O)c3cn(C)cn3)cc2CC1=O,inactive,inactive,inactive
COc1ccc(NC(=O)N(C)C[C@H]2OCCCC[C@H](C)Oc3ccc(NC(=O)CCC(F)(F)F)cc3C(=O)N([C@@H](C)CO)C[C@H]2C)cc1,inactive,inactive,inactive
Cc1ccc(S(=O)(=O)N(C)C[C@H]2OCCCC[C@@H](C)Oc3ccc(NS(=O)(=O)c4ccc(F)cc4)cc3C(=O)N([C@@H](C)CO)C[C@H]2C)cc1,inactive,inactive,inactive
C[C@@H]1CN([C@@H](C)CO)S(=O)(=O)c2ccc(-c3ccc(C(=O)N(C)C)cc3)cc2O[C@@H]1CN(C)C(=O)C1CCC1,inactive,inactive,inactive
C[C@H](CO)N1C[C@H](C)[C@H](CN(C)C(=O)Nc2ccccc2)OCCCC[C@H](C)Oc2ccc(NC(=O)Nc3ccccc3)cc2C1=O,inactive,inactive,inactive
CN1CCN(C(=O)C[C@@H]2C=C[C@H](NC(=O)Nc3ccccc3F)[C@@H](CO)O2)CC1,inactive,inactive,inactive
COc1ccc(NC(=O)N(C)C[C@H]2OCCCC[C@@H](C)Oc3ccc(NS(=O)(=O)c4ccc(F)cc4)cc3C(=O)N([C@H](C)CO)C[C@@H]2C)cc1,inactive,inactive,inactive
C[C@H]1CN([C@@H](C)CO)S(=O)(=O)c2ccc(C#Cc3ccncc3)cc2O[C@H]1CN(C)C(=O)C1CCOCC1,inactive,active,inactive
Cc1noc(C)c1S(=O)(=O)N(C)C[C@@H]1OCCCC[C@@H](C)Oc2ccc(N(C)C)cc2C(=O)N([C@H](C)CO)C[C@H]1C,inactive,inactive,inactive
COc1ccccc1NC(=O)Nc1ccc2c(c1)OC[C@@H](C)N(Cc1ccccc1Cl)C[C@@H](C)[C@H](OC)CN(C)C2=O,inactive,inactive,inactive
O=C(CCCN1CC=C(n2c(=O)[nH]c3ccccc32)CC1)c1ccc(F)cc1,inactive,inactive,inactive
CO[C@@H]1CN(C)C(=O)c2ccc(NC(=O)c3cnccn3)cc2OC[C@@H](C)N(C(=O)c2cnccn2)C[C@H]1C,inactive,inactive,inactive
O=C1C(=CNC(CO)(CO)CO)C(=O)c2ccccc21,inactive,inactive,inactive
CO[C@@H]1CN(C)C(=O)c2cc(NC(=O)Nc3cccc(F)c3)ccc2OC[C@@H](C)N(C(=O)Nc2cccc(F)c2)C[C@H]1C,inactive,inactive,inactive
COc1ccc(CN(C)C[C@H]2Oc3ccc(NC(=O)Nc4ccc(C(F)(F)F)cc4)cc3CC(=O)N([C@H](C)CO)C[C@H]2C)cc1,active,active,inactive
CNC[C@@H]1Oc2cc(C#CC(C)(C)O)ccc2S(=O)(=O)N([C@H](C)CO)C[C@H]1C,inactive,inactive,inactive
Cc1noc(C)c1NC(=O)N(C)C[C@H]1Oc2ccc(NC(=O)Cn3cnnn3)cc2CC(=O)N([C@H](C)CO)C[C@H]1C,inactive,inactive,inactive

SMILES,cytotoxicity call (HSkMC),cytotoxicity call (HepG2),growth inhibition call (S. aureus RN4220)
COc1cccc(-c2cn(CC[C@H]3CC[C@H](NC(=O)CN(C)C)[C@@H](CO)O3)nn2)c1,inactive,inactive,inactive
C[C@@H]1CN([C@H](C)CO)C(=O)c2cc(NS(=O)(=O)c3ccccc3)ccc2O[C@@H](C)CCCCO[C@@H]1CN(C)S(=O)(=O)c1cn(C)cn1,inactive,inactive,inactive
C[C@@H]1CCCCO[C@H](CN(C)Cc2ccc(C(=O)O)cc2)[C@@H](C)CN([C@H](C)CO)C(=O)c2cc(NS(=O)(=O)c3ccc(Cl)cc3)ccc2O1,inactive,inactive,inactive
C[C@@H]1CN([C@@H](C)CO)C(=O)c2cc(N(C)C)ccc2O[C@@H](C)CCCCO[C@H]1CN(C)Cc1ccc(C(F)(F)F)cc1,inactive,inactive,inactive
C/C=C/c1ccc2c(c1)O[C@H](CN(C)C(=O)c1ccc3c(c1)OCO3)[C@H](C)CN([C@@H](C)CO)S2(=O)=O,inactive,inactive,inactive
O=C(NO)c1cccc(C(=O)N/N=C/[C@@H](O)[C@H](O)[C@H](O)CO)c1,inactive,inactive,inactive
COc1ccc(S(=O)(=O)Nc2cccc3c2O[C@H](CN(C)Cc2ccc(Cl)c(Cl)c2)[C@@H](C)CN([C@H](C)CO)C3=O)cc1,inactive,inactive,inactive
C[C@@H]1CN([C@H](C)CO)C(=O)c2cccc(NS(=O)(=O)c3ccc(Cl)cc3)c2O[C@@H]1CN(C)C(=O)Nc1ccc(C(F)(F)F)cc1,active,active,inactive
C[C@H](CO)N1C[C@H](C)[C@@H](CN(C)Cc2ccc(C(=O)O)cc2)Oc2ccc(NS(=O)(=O)c3ccccc3)cc2CC1=O,inactive,inactive,inactive
COc1ccc(S(=O)(=O)Nc2ccc3c(c2)C(=O)N([C@@H](C)CO)C[C@H](C)[C@H](CN(C)C(=O)Nc2c(C)noc2C)OCCCC[C@H](C)O3)cc1,inactive,inactive,inactive
COC(=O)[C@@]12OC[C@]34[C@H]([C@@H](O)[C@@H]1O)[C@@]1(C)CC(=O)C(=O)[C@H](C)[C@@H]1C[C@H]3OC(=O)[C@H](OC(=O)/C=C(\C)C(C)C)[C@@H]24,active,active,inactive
C[C@@H]1CN([C@@H](C)CO)C(=O)CCCn2cc(nn2)CO[C@H]1CN(C)S(=O)(=O)c1ccc(Oc2ccccc2)cc1,inactive,inactive,inactive
COCCNC(=O)C[C@@H]1CC[C@H]2[C@@H](COC[C@@H](O)CN2S(=O)(=O)c2ccccc2F)O1,inactive,inactive,inactive
C[C@H](CO)N1C[C@H](C)[C@H](CN(C)C(=O)Nc2ccc(F)cc2)Oc2ccc(NC(=O)CCCN(C)C)cc2C1=O,inactive,inactive,inactive
C[C@@H]1CN([C@H](C)CO)C(=O)c2cccc(NC(=O)Nc3ccc(F)cc3)c2O[C@H]1CN(C)C(=O)Nc1cccc2ccccc12,inactive,inactive,inactive
C[C@H](CO)N1C[C@H](C)[C@@H](CN(C)C(=O)Nc2ccc(C(F)(F)F)cc2)Oc2c(NC(=O)Nc3ccc4c(c3)OCO4)cccc2C1=O,inactive,inactive,inactive
C[C@@H]1CCCCO[C@H](CN(C)S(=O)(=O)c2cn(C)cn2)[C@@H](C)CN([C@H](C)CO)C(=O)c2cc(NC(=O)Nc3cccc4ccccc34)ccc2O1,inactive,inactive,inactive
NCC1OC(OC2C(CO)OC(OC3C(O)C(N)CC(N)C3OC3OC(CO)C(O)C(O)C3N)C2O)C(N)C(O)C1O.O=S(=O)(O)O (stereo not given),inactive,inactive,active
Cc1ccc(S(=O)(=O)Nc2ccc3c(c2)C(=O)N([C@H](C)CO)C[C@@H](C)[C@H](CN(C)S(=O)(=O)c2ccc(C)cc2)OCCCC[C@H](C)O3)cc1,inactive,inactive,inactive
C[C@@H](O)[C@@H](O)[C@@H](O)C/C=N/NC(=O)CCCCCCC(=O)NO,inactive,inactive,inactive
Cc1noc(C)c1S(=O)(=O)Nc1ccc2c(c1)C(=O)N([C@H](C)CO)C[C@@H](C)[C@@H](CN(C)S(=O)(=O)c1cn(C)cn1)O2,inactive,inactive,inactive
C[C@@H]1CN([C@@H](C)CO)C(=O)CCCn2cc(nn2)CO[C@@H]1CN(C)C(=O)Nc1ccc(C(F)(F)F)cc1,inactive,inactive,inactive
S=c1[nH]cc(-c2ccccc2)[nH]1,inactive,inactive,active
C[C@@H]1CN([C@@H](C)CO)C(=O)c2cc(C#CCN(C)C)cnc2O[C@@H]1CN(C)C(=O)CN1CCOCC1,inactive,inactive,inactive
C#CC1(O)CCC2C3CCC4=CC(=O)CCC4C3CCC21CC (stereo not given),inactive,inactive,inactive
CCCC#Cc1ccc2c(c1)O[C@H](CN(C)S(=O)(=O)c1cccc(F)c1)[C@@H](C)CN([C@H](C)CO)S2(=O)=O,inactive,inactive,inactive
N#CC1(N[C@@H](Cc2ccccc2)c2ccccc2)CCCCCC1,inactive,inactive,inactive

# Source: the antibiotic and cytotoxicity screens of Wong et al. (2023)
